Experimental data published in PMC6919601, “Identification of Plasmodium dipeptidyl aminopeptidase allosteric inhibitors by high throughput screening” (PLoS ONE, 2019).
“And” between values parts separate entries of the source, which are not always exact repeats. Equal entries are not always repeated. Out of some 110,000 compounds screened, about 230 (0.21%) showed an effect of 50% or more. The list shows a part of the results.

molecular target: DPAP1 (Plasmodium falciparum, UniProt Q8IIJ9); experiment: primary screen, percent inhibition; read by cleavage of a fluorogenic dipeptide substrate; higher = more effect of the substance; set-up: species or system P. falciparum D10 trophozoite lysates; single well
Sequence (Q8IIJ9 whole entry, looked up): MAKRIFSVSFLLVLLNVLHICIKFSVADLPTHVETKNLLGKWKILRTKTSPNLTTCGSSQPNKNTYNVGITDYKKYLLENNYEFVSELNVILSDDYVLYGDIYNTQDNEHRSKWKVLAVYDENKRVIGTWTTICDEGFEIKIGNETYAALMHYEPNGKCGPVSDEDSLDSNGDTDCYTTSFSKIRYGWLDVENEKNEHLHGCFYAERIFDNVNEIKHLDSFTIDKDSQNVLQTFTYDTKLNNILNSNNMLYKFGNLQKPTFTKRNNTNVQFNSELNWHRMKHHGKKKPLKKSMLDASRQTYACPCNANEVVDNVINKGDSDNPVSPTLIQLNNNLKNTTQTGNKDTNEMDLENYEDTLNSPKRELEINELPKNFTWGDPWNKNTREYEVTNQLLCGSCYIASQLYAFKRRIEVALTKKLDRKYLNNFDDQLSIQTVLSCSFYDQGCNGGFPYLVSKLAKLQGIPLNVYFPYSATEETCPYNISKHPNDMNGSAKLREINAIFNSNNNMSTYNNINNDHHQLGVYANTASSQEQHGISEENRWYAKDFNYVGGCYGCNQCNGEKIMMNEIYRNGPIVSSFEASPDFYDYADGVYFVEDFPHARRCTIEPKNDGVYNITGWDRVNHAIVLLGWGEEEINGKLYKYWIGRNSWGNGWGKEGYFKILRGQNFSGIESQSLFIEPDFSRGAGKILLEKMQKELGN
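Further: 30 min substrate incubation versus DMSO and 10 µM JCP410 controls.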

Row | SMILES | % Inhibition @ 10 uM
1 | CC(=O)c1cc(-c2ccc(F)cc2)n(CCC(=O)N2CC(C)CC(C)C2)c1C (stereo not drawn) | -3.87%
2 | COc1cccc(-c2csc(NC(=O)c3ccc(Cl)cc3)n2)c1 | 4.44%
3 | O=C(NCCCn1ccnc1)c1cc(-c2cccc(Br)c2)nc2ccccc12 | -4.76%
4 | O=C1NC(=S)S/C1=C\c1ccc(-c2ccc(Cl)c(Cl)c2)o1 | 5.61%
5 | COc1ccc(Cl)cc1NC(=O)c1sc2nc(-c3ccncc3)ccc2c1N | -2.8%
6 | Cc1nc2ccc(F)cc2c2c1CCN2c1ccccc1 | -4.76%
7 | Cc1cc(C(=O)Nc2sc(C)c(-c3ccc(F)cc3)c2C(N)=O)no1 | -1.07%
8 | CCOCCCNCc1ccc(Cl)cc1 | 0.387%
9 | Cc1ccc(C2C3=C(O)CC(C)(C)CC3=NC3=C2C(=O)CC(C)(C)C3)cc1 (stereo not drawn) | -2.8%
10 | CC(=O)c1ccc(NC(=O)Cn2nc(C)cc2C)cc1 | 2.17%
11 | COc1ccc(OC)c(C2c3cc(OC)c(OC)cc3CCN2C(C)=O)c1 (stereo not drawn) | -0.693%
12 | C=CCSc1nc(=O)c2c(n1C)NC(=O)CC2c1ccccc1OC(C)C (stereo not drawn) | 2.25%
13 | COCCCN1C(=O)C(O)=C(C(=O)c2ccc(C)cc2)C1c1cccc(OC)c1 (stereo not drawn) | -6.2%
14 | O=C(CC(c1ccccc1)c1ccccc1)N1CCN(Cc2ccc3c(c2)OCO3)CC1 | -4.03% and 3.56%
15 | CCOc1cc(C2C(C#N)=C(N)Oc3[nH]nc(CC)c32)ccc1OC(F)F (stereo not drawn) | 0.851%
16 | CC(C)c1ccc(CN2CCCC(CO)C2)cc1 (stereo not drawn) | 1.04%
17 | COc1ccccc1CNC(=O)CCCNC(=O)Cn1cnc2sc3c(c2c1=O)CCCC3 | 0.231%
18 | O=C(Nc1ccc2c(c1)OCCO2)c1ccc(OC(F)F)cc1 | -2.85%
19 | CCOC(=O)C1=C(CNCCc2ccccc2)NC(=O)NC1c1ccc(C)cc1 (stereo not drawn) | 2.39%
20 | CCC(=O)NS(=O)(=O)c1cccnc1Nc1ccc(Cl)c(C(F)(F)F)c1 | 6.98%
21 | O=C(CN(c1ccccc1)S(=O)(=O)c1ccccc1)N1CCOCC1 | -2.77%
22 | CC(C)N1CCC2(CC1)N=C(c1ccccc1)C(=S)N2 | 5.46%
23 | O=C1CC(c2ccccc2Cl)c2cc3c(cc2N1)OCO3 (stereo not drawn) | -5.27%
24 | O=C(CN1C(=O)S/C(=C/c2cccc3ccccc23)C1=O)N1CCCC1 | -1.27%
25 | COC(=O)c1ccc(NC(=O)/C=C/c2ccccc2)cc1 | -5.51%

Row | SMILES | % Inhibition @ 10 uM
26 | COc1ccc(C2CC(=O)C(C)C(c3ccc(OC)cc3)N2)cc1 (stereo not drawn) | 5.16%
27 | O=C(NCC1CCCO1)c1ccc(CS(=O)(=O)c2cccc(C(F)(F)F)c2)o1 (stereo not drawn) | -7.14%
28 | CSc1nc2c(c(=O)n1CC1CCCC1)C1(CCCCC1)Cc1ccccc1-2 | -3.77%
29 | CC(C)c1nnc2sc(NC(=O)C3CCCCC3)nn12 | -2.17%
30 | CCOc1ccc2c(C(F)(F)F)cc(=O)oc2c1 | -2.21%
31 | Cc1c(C(=O)N2CCCC2)oc2c1-c1nn(CC(=O)N3CCc4ccccc4C3)cc1CC2 | -4.37%
32 | O=C(NC12C[C@H]3C[C@@H](C1)C[C@@H](C2)C3)N1CCN(C2CCCCC2)CC1 | -0.551%
33 | Cc1cccc(C)c1NC(=O)c1sc(Cl)nc1C | 4.31%
34 | CCOc1ccc(CN2CCN(c3ccc(OC)cc3)CC2)cc1 | 2.9%
35 | CCCCNC(=O)c1cnn2c(C(F)F)cc(-c3ccc(C)cc3)nc12 | -4.35%
36 | COc1ccc(NC(=O)c2ccc(OC)cc2)cc1 | 0.035%
37 | CCOc1ccc2oc(=O)cc(CN3CCN(C(=O)c4ccco4)CC3)c2c1 | -7.24%
38 | CN(C)CCOC(c1ccccc1)C1CC=CCC1 (stereo not drawn) | -1.6%
39 | COc1ccc(CN2CCN(C(=O)CC(C)C)CC2)cc1OC | 0.214% and -3.19%
40 | Cc1sc2ncnc(NCCc3ccccc3)c2c1C | -1.68%
41 | CCN(CCNS(=O)(=O)c1csc(C(N)=O)c1)Cc1ccccc1 | -1.59%
42 | O=C1N=C(N2CCCC2)S/C1=C\c1ccccc1O | 5.3%
43 | COCCNC(=O)CSc1[nH]c(-c2ccc(OC)c(OC)c2)nc1-c1ccc(F)cc1 | 1.85%
44 | CN1CCN(C(=O)NC23CC4CC(CC(C4)C2)C3)CC1 | 2.92%
45 | CCOc1ccccc1N1CCN(Cc2ccc(OC(F)(F)F)cc2)CC1 | 3.24%
46 | CCOC(=O)c1cc(CC)sc1NC(=O)c1cccc(Br)c1 | -2.26%
47 | COc1nc(N)nc(-c2ccco2)n1 | -2.81%
48 | CCCCn1c(CN2CCCCC2)nc2c1c(=O)n(C)c(=O)n2C | -0.499%
49 | CCn1c(S)nc2c(=O)oc3ccccc3c21 | 14%
50 | CC(C)Cc1csc2ncnc(N3CCCC3)c12 | -2.6%

Row | SMILES | % Inhibition @ 10 uM
51 | CC(C)CNC(=O)CN(Cc1ccc(Cl)c(Cl)c1)S(=O)(=O)c1ccccc1 | 0.475%
52 | COc1ccc(-n2c(C)cc(/C=C3\C(=N)N4N=C(N5CCOCC5)SC4=NC3=O)c2C)cc1 | -1.66%
53 | C=CCN1C(=O)S/C(=C/c2ccccc2OCc2cccc(C(=O)O)c2)C1=O | -1.43%
54 | C=CCn1c(S)nc2c1c(=O)n(C)c(=O)n2C | -1.1%
55 | O=C(NCC(Cc1ccccc1F)c1ccccc1)c1nc(-c2cccs2)no1 (stereo not drawn) | 4.58%
56 | O=C(O)CC[n+]1ccc(-c2cc[n+](CCC(=O)O)cc2)cc1 | -4.84%
57 | COc1cc(C)c(C(C)C)cc1S(=O)(=O)n1cnc(C)c1 | -0.85%
58 | CCN(CC)C(=O)/C(=C/c1ccc2c(c1)OCO2)NC(=O)c1ccc(Br)cc1 | 24.4%
59 | COc1cc(NC(=O)Nc2ccc(Cl)cc2)c(OC)cc1Cl | -1.42%
60 | CC1(c2ccccc2)CC(C)(C)N2C(=O)C(=O)c3cccc1c32 (stereo not drawn) | -3.46%
61 | COc1cc(/C=C2\SC(Nc3ccc(C)cc3)=NC2=O)ccc1OC(C)C(=O)O (stereo not drawn) | 0.161%
62 | Cc1ccc(C(C#N)NC(=O)[C@H](CC(C)C)NC(=O)c2ccc(-c3ccccc3Cl)cc2)o1 (stereo partly drawn) | -6.46% and -1.41%
63 | CCOC(=O)c1c(NC(=O)CN2CCOCC2)sc(C)c1C | -0.999%
64 | COc1ccc(C(=O)O/N=C(\N)Cc2cccs2)cc1OC | -5.01%
65 | N#Cc1c(C(F)(F)F)n2c3c(cccc3c1=N)CCC2 | -5.01%
66 | CCC(Sc1nc2nnc(C)c-2c(N)n1-c1cc(Cl)ccc1C)C(=O)N1CCOCC1 (stereo not drawn) | 4.35%
67 | O=C(Nc1ccccc1Br)c1ccc([N+](=O)[O-])cc1 | 1.48%
68 | O=C1OC(c2cncc(Br)c2)=N/C1=C\c1cc(Br)cs1 | -0.617%
69 | CCN(CC)c1ccc(NC(=O)c2ccccc2OC)c(C)c1 | -8.59%
70 | O=c1ccc2ccc(O)c(CN3CCOCC3)c2o1 | 5.01%
71 | CCSc1nc2c(c(=O)n1C)C1(CCCC1)Cc1ccccc1-2 | -7.54%
72 | O=C(O)c1ccccc1/N=c1\c([N+](=O)[O-])c(O)oc2ccccc12 | 7.92%
73 | COc1ccc(C(=O)NCCNC(=O)c2ccc(OC)cc2)cc1 | 2.39%
74 | COc1ccc(CN2CC(C(=O)NCCCN3CCN(Cc4ccccc4)CC3)CC2=O)cc1 (stereo not drawn) | 1.62%
75 | CCOC(=O)c1cnc2nc(NCc3cccc(OC)c3)nn2c1O | -7.96%

Row | SMILES | % Inhibition @ 10 uM
76 | CC(=O)NCc1nc2ccccc2n1Cc1cc(C)ccc1C | 4.69%
77 | CCc1ccc(S(=O)(=O)Nc2ccc(-c3cn4cccnc4n3)cc2)cc1 | 0.13%
78 | CCOc1ccc(-c2[nH]nc3c2C(c2ccc(O)c(OCC)c2)NC3=O)cc1 (stereo not drawn) | -7.16%
79 | COc1cccc(-n2nnc3c(=O)n(CC(=O)NC4CCCC4)cnc32)c1 | -2.16%
80 | O=C1c2cccnc2C(=O)N1Cc1ccc(F)cc1S(=O)(=O)N1CCOCC1 | -5.16%
81 | CCN(CC)CCN1C(=O)C(O)=C(C(C)=O)C1c1ccc(Br)cc1 (stereo not drawn) | 12.9%
82 | CC(C)CC(C(=O)NCC#N)c1cccc(NC(=O)NCCCN2CCOCC2)c1 (stereo not drawn) | -3.97%
83 | Cc1ccc(Cn2c(SCC(O)CO)nc3c2c(=O)[nH]c(=O)n3C)cc1 (stereo not drawn) | 3.45%
84 | O=C(CSCc1ccccc1)Nc1cnc(O)nc1O | 0.273%
85 | Cn1c(=O)c2c(nc(CN3CCOCC3)n2CCCc2ccccc2)n(C)c1=O | -1.43%
86 | C=CCN1C(=O)NC(=O)/C(=C/c2cc(Br)c(OCC(=O)O)c(OC)c2)C1=O | 0.128%
87 | Cc1ccc(/C=C2/C(=N)N3N=C(Cc4ccccc4)SC3=NC2=O)cc1 | 41.7%
88 | O=C(c1nn2c(c1Cl)NC(c1ccco1)CC2C(F)(F)F)N1CCN(Cc2ccccc2)CC1 (stereo not drawn) | 3.25%
89 | CCC(C)c1ccc(OCCOc2ccc(C=C3C(=O)N(C)C(=O)N(C)C3=O)cc2)cc1 (stereo not drawn) | -4.11%
90 | CC(=O)Nc1ccc(NC(=O)c2cnccn2)cc1 | 2.01%
91 | COc1ccc(-c2csc3ncn(Cc4ccccc4)c(=O)c23)cc1OC | 3.04%
92 | CCNC(=O)c1ccc2c(c1)sc1nc(-c3ccc(CC)cc3)cn12 | -2.97%
93 | O=C(Nc1nnc(S(=O)(=O)N2CCOCC2)s1)C1CCCCC1 | 0.00665%
94 | COC(=O)c1c(NC(=O)c2cc3ccccc3oc2=O)sc2c1CCCC2 | 17%
95 | CCOC(=O)c1c(C)n(-c2ccc(OC)cc2)c2ccc(O)c(CN(C)C)c12 | -1.29%
96 | CCCCCC/C(C)=C(\C#N)C(=O)OCC | -5.51%
97 | Cc1cc(C)nc(/N=C(/NC(=O)Nc2ccccc2)NC2CC(C)(C)NC(C)(C)C2)n1 | -5.3%
98 | CCOc1ccccc1C(=O)N1CCc2cc(OC)c(OC)cc2C1COc1ccccc1OC (stereo not drawn) | -3.18%
99 | CC(C)C1Cc2c(sc3nc(SCC(=O)O)n(Cc4ccccc4)c(=O)c23)CO1 (stereo not drawn) | -3.33%
